# ± gives the standard deviation. This is a selection; strong and weak results do not stand in their true shares.
# System: MIWI (PIWIL1) piRISC loaded with piRNA #1 (30 nt)
# Test: pre-steady-state target cleavage rate (min^-1); MIWI and MILI are mouse PIWI proteins and EfPiwi is from a freshwater sponge; tags in brackets are library labels; higher = faster piRNA-guided slicing of the target
# Conditions: guide: piRNA #1 5'p-UGAGGUAGUAGGUUGUAUAGUAUCCAGAGG; auxiliary factor: 500 nM mouse GTSF1
# Summary of the method: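 In this Cleave-'n-Seq assay, uncleaved targets were sequenced and normalised to depth and to weakly complementary targets. They came from a transcribed, DNA-blocked target RNA library […] mixed with 1 nM active affinity-purified piRISC carrying one synthetic guide, with or without 500 nM GTSF1 partner protein, in HEPES–potassium acetate buffer at 33 °C for 0–8 or 0–960 min. After three trials were pooled and k3 was capped at 0.0001 min^-1, the pre-steady-state cleavage rate was obtained from a burst-and-steady-state fit.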
# 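Further: 1 nM active piRISC with 0.1 nM target library at 33 °C single turnover.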
row,Sequence,pre-steady-state target cleavage rate
1,GGAGACCUAACUAUACAACCUACUACCUCU [g2:g21:cont:t1U],1 ± 0.072
2,GCUGUGGAUACUAUACAACCAACUACCUCA,0.15 ± 0.015
3,GGAGAGGUUACUAUACAACCUACUUCCUCA,0.0679 ± 0.013
4,CCUCUGGAUACUAUACAACCUACUACGUCA,1.49 ± 0.11
5,GCUGCUGGAUACUAUACAACCUACUACCUCA,2.01 ± 0.14
6,GGAGUCGAAACUAUACAACCUACUACCUCA,1.32 ± 0.081
7,CCUCUGGAUCUAUACAACCUACUACCUCA,1.19 ± 0.086
8,GGAGACCUAUGUAUACAACCUACUACACUCA,0.132 ± 0.019
9,GGAGACCUAUGUAUAUAACCUACUACCUCA,0.126 ± 0.015
10,GGAGAGGAUAUAUACAACCUACUACCUCA,1.21 ± 0.064
11,GGAGUCGAUAGUAUACAACCUACUACCUCA,0.994 ± 0.061
12,GGAGACCUAUGAAAUACAACCUACUACCUCA,0.00576 ± 0.0027
13,GGUCUGGAUAGUAUUCAACCUACUACCUCA,0.768 ± 0.067
14,GCUCUGGAUAGUAUACAACCUACUACCACA,0.59 ± 0.043
15,GGUCUGGAUUCUAUACAACCUACUUCCUCA,0.0648 ± 0.016
16,CCUCUGGUUACUAUACAACCUACUACCUGA,0.689 ± 0.051
17,GCUCAGGAUAGUAUACAACCUACUACCUCA,0.82 ± 0.043
18,GGACUGGAUACUAUACAACGUAGUACCUCA,0.256 ± 0.067
19,GGAGAGGAUACUAUACAACCUACAUACCUCA,0.914 ± 0.071
20,GGAGACCUAUCUAUACAACCUACAACCUGA,0.124 ± 0.031
21,CCUCGUGGAUACUAUACAACCUACUACCUCA,2.17 ± 0.16
22,GGACUGCAUACUAUUCAACCUACUACCUCA,1.35 ± 0.12

row,Sequence,pre-steady-state target cleavage rate
1,GGAGACCUUACUAUACAACCUACUACUCUCA,1.58 ± 0.11
2,GGAGACGAUUGAAUACAACCUACUACCUCA,0.00304 ± 0.003
3,GGAGACCUAUGAUAUGUUCCUACUACCCUCA,< 0.0001
4,GGAGACCUUACUAUGACAACCUACUACCUCA,0.856 ± 0.1
5,GGAGACCAUUCUAUACAACCUACUAGCUCA,0.64 ± 0.064
6,GCUCUGGAUACUAUACUACCUACUACCACA,1.66 ± 0.15
7,CCUCUGGAUACUAUACUACCUACUUCCUCA,0.655 ± 0.067
8,CCUCUCGGAUACUAUACAACCUACUACCUCA,2.06 ± 0.15
9,GGAGACCUUACUAUACAACCUACUAGCACA,0.29 ± 0.048
10,CCUCUGGAUACUAUACAACCUACUACGACA,1.15 ± 0.087
11,GGAGACCUAUCUAUACAACCUUGUACCUCA,0.00593 ± 0.0026
12,GGUCUGCAUACUAUACAACCUACUAGCUCA,0.129 ± 0.029
13,CCUCUGGAUACAAUACAACGUACUACCUCA,0.889 ± 0.061
14,GGACUCGGAUACUAUACAACCUACUACCUCA,1.97 ± 0.13
15,GCUGUGGAUACUAUACUACCUACUACCUCA,1.54 ± 0.097
16,GGAGACGAUACUAUACAAGCAACUACCUCA,0.0416 ± 0.0076
17,GGUCUGGAUACUAUACAAGCUAGUACCUCA,0.306 ± 0.062
18,GGAGACCUAACUAUGACAACCUACUACCUCA,0.177 ± 0.019
19,GGUCAGGAUACUAUACUACCUACUACCUCA,1.48 ± 0.1
20,GGUCUGGAUACCAUACAACCUACUACCUCA,1.68 ± 0.093
21,GGAGUGGAUACUAUACAACCUACAAGCUCA,0.0042 ± 0.002
22,GGAGAGGAUUGAAUACAACCUACUACCUCA,0.144 ± 0.021

row,Sequence,pre-steady-state target cleavage rate
1,GGUCUGGAUAAUAUACAACCUACUACCUCA,1.88 ± 0.12
2,GGAGAGGAUACUAUACAAGCUACUUCCUCA,0.265 ± 0.037
3,GGAGACCAUUCUAUACAACCAACUACCUCA,0.0328 ± 0.0046
4,GGAGACGAUACUUAUCAACCUACUACCUCA,0.407 ± 0.058
5,GGAGACGUUACUAUACAACCUACUACCACA,1.12 ± 0.088
6,GGAGAGGAUACUAUACAUCCUACUACCUGA,0.0508 ± 0.014
7,GGAGACGAUACUAUACAACCUUCUACGUCA,0.417 ± 0.07
8,CCUGUGGAUACUAUACAACCUAGUACCUCA,0.186 ± 0.051
9,GGACUGGAAACUAUACAUCCUACUACCUCA,0.968 ± 0.088
10,GGAGAGGAUACUAUACAACCUACUACCAGA,0.155 ± 0.019
11,GGAGACCAUACUAUACAACCUACAACCUCA,0.982 ± 0.08
12,GGAGACCUAACUAAACAACCUACUACGUCA,0.33 ± 0.11
13,CCUCUGGAUACUAAACAACCUACUACCUCA,1.86 ± 0.12
14,GGAGAGGAUACUAUUGUACCUACUACCUCA,0.111 ± 0.016
15,GGAGAGGAUACUAUACAUGGUACUACCUCA,0.0299 ± 0.0069
16,GGAGACCUAUCUAUACAAGCAACUACCUCA,0.0059 ± 0.0026
17,CCUCUGGAUACUAUACAACCAACAACCUCA,0.096 ± 0.015
18,GCUGUGGAUACUAUACAACGUACUACCUCA,1.05 ± 0.065
19,GGAGACCUUACUAUACUACGUACUACCUCA,0.0392 ± 0.0094
20,GGAGACCUAUGUAUACAACCUACUAUCCUCA,0.078 ± 0.01
21,GGUCUGGAUUCUAAACAACCUACUACCUCA,1.23 ± 0.071
22,GGACUGAUACUAUACAACCUACUACCUCA,1.72 ± 0.11
